This is one part of the list. The energies were worked out here from pooled read counts, against the library average; single values are noisy.
Molecular target: T1, Pho4 (S. cerevisiae) (UniProt P07270)
T1 sequence: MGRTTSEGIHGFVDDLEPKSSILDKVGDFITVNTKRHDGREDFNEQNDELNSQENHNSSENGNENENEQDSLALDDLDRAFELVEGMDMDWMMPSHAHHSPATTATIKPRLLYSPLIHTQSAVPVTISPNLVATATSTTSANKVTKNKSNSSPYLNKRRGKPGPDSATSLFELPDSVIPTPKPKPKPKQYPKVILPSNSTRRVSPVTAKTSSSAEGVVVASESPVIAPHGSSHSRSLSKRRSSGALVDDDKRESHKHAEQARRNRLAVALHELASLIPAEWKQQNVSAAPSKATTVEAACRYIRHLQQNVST
Assay: relative binding free energy (BET-seq); higher = weaker binding
Conditions: reference: library average

Row | Sequence | relative binding free energy
1 | ATACGCACGTGTGTGT | -0.06 kcal/mol
2 | TTGTACACGTGGGATA | -0.03 kcal/mol
3 | AGGGTCACGTGGATTA | 0.07 kcal/mol
4 | ATTTTCACGTGCAGGG | 0.18 kcal/mol
5 | TTGCACACGTGGTGAG | 0.02 kcal/mol
6 | TTTCTCACGTGGCGTG | 0.12 kcal/mol
7 | AAATTCACGTGGTGGT | 0.18 kcal/mol
8 | ATTCGCACGTGGATTG | -0.16 kcal/mol
9 | AGGATCACGTGAGAGG | 0.45 kcal/mol
10 | ATTTTCACGTGTGGCT | 0.31 kcal/mol
11 | TTGTACACGTGCGTGG | -0.03 kcal/mol
12 | GTGTGCACGTGGTCGT | -0.06 kcal/mol
13 | TGAGTCACGTGCTGCG | 0.1 kcal/mol
14 | TTAGGCACGTGAGTTA | 0.16 kcal/mol
15 | AGCTTCACGTGGGTTG | 0.17 kcal/mol
16 | GTAAACACGTGGGGCA | -0.09 kcal/mol
17 | GTCTGCACGTGGGGGT | -0.15 kcal/mol
18 | GATATCACGTGAATGT | 0.41 kcal/mol
19 | ATCGTCACGTGTGAGT | 0.08 kcal/mol
20 | TTAGGCACGTGCGTGT | -0.17 kcal/mol
21 | TGGCTCACGTGGGGGT | 0.05 kcal/mol

Row | Sequence | relative binding free energy
22 | ATGTTCACGTGGGGTC | 0.09 kcal/mol
23 | TGTTCCACGTGTTTTT | 0.07 kcal/mol
24 | TTAGTCACGTGGATTG | 0.11 kcal/mol
25 | AGTTACACGTGGTGTG | -0.02 kcal/mol
26 | GGTATCACGTGAGAAT | 0.29 kcal/mol
27 | CGCGGCACGTGGAGTG | -0.1 kcal/mol
28 | AGCGTCACGTGGCGGC | 0.03 kcal/mol
29 | TGCGTCACGTGGCTGG | 0 kcal/mol
30 | AGAGACACGTGAGGAG | 0.44 kcal/mol
31 | TGCAGCACGTGGATGG | -0.12 kcal/mol
32 | ATATTCACGTGGGCGG | 0.18 kcal/mol
33 | TTTACCACGTGTTGAG | 0.15 kcal/mol
34 | GAAATCACGTGGTTTG | 0.15 kcal/mol
35 | CTAGCCACGTGGGTTG | -0.11 kcal/mol
36 | CCTGGCACGTGGGCGG | -0.21 kcal/mol
37 | TTTATCACGTGTGACA | 0.26 kcal/mol
38 | TAGATCACGTGAGGCA | 0.57 kcal/mol
39 | GTTGTCACGTGAATAA | 0.42 kcal/mol
40 | TTCATCACGTGGAGTA | 0.15 kcal/mol
41 | TGTGCCACGTGGGGTT | -0.18 kcal/mol
42 | GGGTCCACGTGGGCGT | -0.1 kcal/mol

Row | Sequence | relative binding free energy
43 | ATTGGCACGTGCAGTA | -0.28 kcal/mol
44 | TTTTGCACGTGTATTT | 0.03 kcal/mol
45 | GGGGGCACGTGCGCGC | -0.29 kcal/mol
46 | GTTCTCACGTGTATAT | 0.22 kcal/mol
47 | ATGTACACGTGGCTTG | -0.18 kcal/mol
48 | TTGCGCACGTGGCGGT | -0.19 kcal/mol
49 | TGCGGCACGTGGTTCA | -0.06 kcal/mol
50 | ATCTTCACGTGAGTAT | 0.37 kcal/mol
51 | GGTTGCACGTGAATGC | 0.15 kcal/mol
52 | AGTGGCACGTGTCGAG | -0.14 kcal/mol
53 | TTGGTCACGTGCATAG | 0.11 kcal/mol
54 | GGGTGCACGTGAAAGT | 0.31 kcal/mol
55 | TAGAGCACGTGCTGGT | -0.19 kcal/mol
56 | CGCGTCACGTGTTTTT | 0.12 kcal/mol
57 | GGGTACACGTGGGAGA | 0 kcal/mol
58 | TTTGGCACGTGTTACT | 0.02 kcal/mol
59 | GTGTGCACGTGGTCTT | -0.09 kcal/mol
60 | TAGCGCACGTGAGTGT | 0.12 kcal/mol
61 | TGTTTCACGTGGCGCA | 0.09 kcal/mol
62 | TTAGGCACGTGTGGCA | -0.09 kcal/mol
63 | GATTGCACGTGTCGTG | 0.05 kcal/mol

Source: the BET-seq Pho4 binding data (Le et al. 2018)
